Results from ChEMBL document CHEMBL1201862, “PubChem BioAssay data set” (2004).
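Protocol summary: plate cells (96-well), add compound at 5 concentrations, incubate 48 h, interpolate endpoints linearly. Here, GI50 denotes the concentration required for 50% inhibition of growth.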 Activity calls are given as the source filed them. Rule as the data show it: active = GI50 up to about 1.1 µM and inactive = higher.

The compounds below were run on NCI-H322M (assay: DTP human tumour cell line panel, 48 h).
In the case of `COc1cc(OC)c2c(O)cc(CC(C)O)cc2c1` (configuration not stated), the GI50 is reported as inactive: > 100 µM. In the case of `CCN1C(=O)C(=C/C=C/c2ccc(OC)cc2)C(=O)N(CC)C1=S`, the GI50 is reported as inactive: > 100 µM. With `O=S(=O)(c1ccccc1)c1nccs1` the GI50 was inactive: > 100 µM. For `CC(=O)OCc1ccc(-c2nc(C#N)c(N)o2)o1`, the GI50 was inactive: > 10 µM. `Cc1ccc(Oc2ccc([N+](=O)[O-])cc2[N+](=O)[O-])c(C)c1` was tested, and the GI50 was inactive: 44.2 µM. With `CCCCCCCCOCC(O)COC` (configuration not stated) the GI50 was inactive: > 100 µM. For `O=C(C(Cl)Cl)N(O)c1ccccc1OCc1ccccc1`, the GI50 was inactive: 34.7 µM. In the case of `CC[C@@]1(OP(=O)(O)O)C(=O)OCc2c1cc1n(c2=O)Cc2cc3ccccc3nc2-1`, the GI50 is reported as active: 0.6 µM. With `COC1=CC(=O)C(O)=C(CC2(C)C(C)CCC3(C)C2CCCC3(C)C)C1=O` (configuration not stated) the GI50 was inactive: 6.47 µM. With `Cn1c(=O)c2c(nc3n2CC(C(=O)O)N3)n(C)c1=O` (configuration not stated) the GI50 was inactive: > 100 µM. `COC(=O)CCC(NC(=S)N/N=C(\C)c1nccs1)C(=O)OC` (configuration not stated) was tested, and the GI50 was inactive: 60.1 µM. In the case of `CC(=O)OCC1OC(n2c3c(cc(C#N)c2=S)CCCCC3)C(OC(C)=O)C(OC(C)=O)C1OC(C)=O` (configuration not stated), the GI50 is reported as inactive: > 100 µM. `Cc1c2[nH]c3ccc(Br)cc3c2c(C)c2nccc(O)c12` was tested, and the GI50 was inactive: 15.7 µM. In the case of `N#Cc1nc(CCN2C(=O)c3ccccc3C2=O)oc1N`, the GI50 is reported as inactive: > 100 µM. For `Cc1n[nH]c(CC#N)n1`, the GI50 was inactive: > 100 µM. In the case of `CC(C)(C)OC(=O)N/N=C(/N)c1ccccc1`, the GI50 is reported as inactive: > 100 µM. `CCOC1c2cc(OC)c(OC)cc2-c2ccc3ccccc3c2N1C` (configuration not stated) was tested, and the GI50 was inactive: 16.5 µM. With `O=C(c1cccnc1)N1N=C(c2ccc3c(c2)OCO3)CC1(O)c1cc(F)c(Cl)cc1Cl` (configuration not stated) the GI50 was inactive: 21.7 µM. For `COc1ccc(-n2cnnc2-c2nsc3ccccc23)cc1`, the GI50 was inactive: > 100 µM. With `CSC1=C(C#N)C(=O)N(c2ccc(Cl)cc2)C(=O)C1C#N` (configuration not stated) the GI50 was inactive: > 100 µM. In the case of `COC(=O)C(CCc1ccccc1I)C1=CCC2(CC1)OCCO2` (configuration not stated), the GI50 is reported as inactive: 48.9 µM. With `Clc1ccc(-c2c(C3=NCCN3)nnn2-c2ccc(Cl)cc2)cc1` the GI50 was inactive: 18.9 µM. For `CC(=O)N(O)c1ccc(-c2nc3ccccc3s2)cc1`, the GI50 was inactive: 97.9 µM. For `CCCN(CCCC(NC(C)=O)C(=O)NCc1ccccc1)C(=O)NC` (configuration not stated), the GI50 was inactive: > 100 µM. In the case of `Cc1ccc(S(=O)(=O)Oc2cc(N)c3c(n2)CCC3)cc1`, the GI50 is reported as inactive: > 100 µM. With `Cn1c(-c2ccc[se]2)ccc1-c1ccc(C=O)[se]1` the GI50 was inactive: > 100 µM. With `Cc1ccc(S(=O)(=O)N2CCNCCN(S(=O)(=O)c3ccc(C)cc3)CCN(S(=O)(=O)c3ccc(C)cc3)CC2)cc1` the GI50 was inactive: > 100 µM. In the case of `Cc1cn(CCCC2=NCCCN2)c(=O)[nH]c1=O`, the GI50 is reported as inactive: > 100 µM. For `Cc1cc(O)c2c3c1C(=O)Oc1c(CO)c(O)c(C(=O)O)c(c1O3)C=NN=Cc1c3c(c(CO)c(O)c1C(=O)O)OC(=O)c1c(C)cc(O)c(c1O3)C=NN=C2`, the GI50 was inactive: > 100 µM. For `N#Cc1ccc(-n2c3ccccc3c3ccc4c(c32)C(=O)C=CC4=O)cc1`, the GI50 was inactive: 14.6 µM. With `N#Cc1nnn(-c2ccccc2)c1O` the GI50 was inactive: > 100 µM. With `C=C1C(O)C2(O)OCC34C(CC5C(C)=CC(=O)C(O)C5(C)C23)OC(=O)C(OC(=O)C/C=C/CCCCCCCC)C14` (configuration not stated) the GI50 was active: 0.0289 µM. With `CCOC(=O)CC/C(C)=N\n1c(Cc2ccc(Cl)cc2)n[nH]c1=O` the GI50 was inactive: > 100 µM. `COC1=CC(=O)c2ccc(C(C)C)cc2C1(C)C1=NC(C)(C)CO1` (configuration not stated) was tested, and the GI50 was inactive: > 100 µM. With `O=C(/C=C/c1ccc([N+](=O)[O-])cc1)c1ccc(NCc2nc3ccccc3[nH]2)cc1` the GI50 was inactive: 7.08 µM. `ClC(Cl)(Cl)C1CCOC1n1nnc2ccccc21` (configuration not stated) was tested, and the GI50 was inactive: > 100 µM. `Cc1csc2nc3[nH]ncc3c(=O)n12` was tested, and the GI50 was inactive: > 100 µM. With `Nc1cc(N)c(/N=N/c2cccc3c(S(=O)(=O)O)cccc23)cc1/N=N/c1cc([N+](=O)[O-])ccc1O` the GI50 was inactive: 34.6 µM. `CCC(C)C(NC(=O)c1c2ccccc2nc2ccccc12)C(=O)O` (configuration not stated) was tested, and the GI50 was inactive: > 100 µM. `O=C(CCl)Nc1ccc(-c2nc3ccccc3s2)cc1` was tested, and the GI50 was inactive: 5.35 µM. With `Nc1ccc2c(c1)C(=O)c1ccccc1-2` the GI50 was inactive: > 100 µM. In the case of `O=[N+]([O-])c1cccc(C2ON2C2CCCCC2)c1` (configuration not stated), the GI50 is reported as inactive: 34 µM. In the case of `COC(=O)/C=C1/OC(c2ccc(C)cc2C)=CC1=O`, the GI50 is reported as inactive: 18.6 µM. For `COC(=O)c1c(O)ccc2c1c1c(n2Cc2ccccc2)C(=O)c2ccccc2C1`, the GI50 was inactive: > 100 µM. With `c1ccc(CSP234N5CCN2CCN3CCN4CC5)c(CSP234N5CCN2CCN3CCN4CC5)c1` the GI50 was inactive: > 100 µM. With `CC1(C)COC(c2ccccc2-c2ccccc2)=N1` the GI50 was inactive: > 100 µM. For `CC1(C)OC2OC(COC(=O)C=[N+]=[N-])C3OC(C)(C)OC3C2O1` (configuration not stated), the GI50 was inactive: > 100 µM.
